Results taken from PMC4336329 (PLoS ONE, 2015).
The whole screen tested about 310,000 compounds, of which about 2,200 (0.71%) showed an effect of 50% or more. Effects have a minus sign here. The list shows a part of the results.

molecular target: human ether-à-go-go-related gene (hERG) potassium channel (human, UniProt Q12809); assay: primary screen, population patch clamp on CHO cells stably expressing hERG
Sequence (Q12809 whole entry, looked up): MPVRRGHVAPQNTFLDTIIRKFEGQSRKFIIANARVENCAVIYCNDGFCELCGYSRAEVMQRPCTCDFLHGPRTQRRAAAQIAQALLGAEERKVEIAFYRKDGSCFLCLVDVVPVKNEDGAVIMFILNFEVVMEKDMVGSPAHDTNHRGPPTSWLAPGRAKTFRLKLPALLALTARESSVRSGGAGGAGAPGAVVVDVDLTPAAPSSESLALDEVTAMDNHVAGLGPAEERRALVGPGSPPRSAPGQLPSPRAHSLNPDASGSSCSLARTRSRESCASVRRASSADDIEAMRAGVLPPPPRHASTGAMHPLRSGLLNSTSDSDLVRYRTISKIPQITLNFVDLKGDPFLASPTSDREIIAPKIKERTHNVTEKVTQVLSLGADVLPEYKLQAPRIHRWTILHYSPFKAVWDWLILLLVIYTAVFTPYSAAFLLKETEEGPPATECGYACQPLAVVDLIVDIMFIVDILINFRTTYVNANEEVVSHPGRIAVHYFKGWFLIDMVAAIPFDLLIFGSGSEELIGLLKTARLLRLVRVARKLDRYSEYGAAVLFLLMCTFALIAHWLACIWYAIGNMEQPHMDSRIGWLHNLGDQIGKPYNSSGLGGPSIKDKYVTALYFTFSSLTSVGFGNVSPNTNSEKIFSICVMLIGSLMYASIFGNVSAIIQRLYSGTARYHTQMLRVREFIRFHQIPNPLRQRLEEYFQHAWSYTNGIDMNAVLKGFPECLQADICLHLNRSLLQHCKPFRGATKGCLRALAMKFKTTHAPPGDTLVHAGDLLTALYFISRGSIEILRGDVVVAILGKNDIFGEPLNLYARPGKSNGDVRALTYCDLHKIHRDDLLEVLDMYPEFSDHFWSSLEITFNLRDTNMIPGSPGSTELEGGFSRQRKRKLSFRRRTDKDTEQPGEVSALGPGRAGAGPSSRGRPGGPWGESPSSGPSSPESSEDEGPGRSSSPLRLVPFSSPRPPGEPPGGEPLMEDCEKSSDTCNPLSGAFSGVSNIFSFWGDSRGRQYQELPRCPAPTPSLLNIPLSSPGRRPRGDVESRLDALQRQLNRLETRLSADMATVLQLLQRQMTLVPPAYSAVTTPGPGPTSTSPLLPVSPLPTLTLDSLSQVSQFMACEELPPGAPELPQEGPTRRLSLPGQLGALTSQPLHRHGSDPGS

Row | Compound | hERG current change (%, negative = inhibition) at 1uM
1 | COC(=O)c1nc(-c2ccccc2)oc1N(C)C | 8.02%
2 | COCCN(CCOC)S(=O)(=O)c1ccc(C(=O)Nc2nc3c(s2)CCc2ccccc2-3)cc1 | 14.8%
3 | Cc1ccc(-c2nc3ccccc3[nH]2)cc1N | 2.65%
4 | CC(=O)Nc1ccc2oc(C)nc2c1 | 22.4%
5 | CC(=O)NC(=S)Nc1cccc2c(C)cc(C)nc12 | -5.54%
6 | COc1cccc(Nc2nc3ccccc3nc2NS(=O)(=O)c2cccs2)c1 | 14.7%
7 | Cc1ccc(NC(=O)COC(=O)CCC(=O)c2ccc(Cl)cc2)cc1S(=O)(=O)N(C)C | 6.21%
8 | CCOc1ccccc1COC(=O)c1cccc(-n2cnnn2)c1 | -2.92%
9 | COc1ccc(/C=C/C(=O)Nc2cc(C)nn2-c2nc3ccccc3[nH]2)cc1 | 9.98%
10 | COc1ccc(-c2ccc3oc(-c4ccc(OC)cc4)c(C#CCO)c3c2)cc1 | 14%
11 | Cc1ccc(-c2cc(-c3ccccc3)nc(NN)n2)cc1 | 14.4%
12 | CCN1CCN(c2ccc(S(=O)(=O)N3CCCCC3)cc2NC(=O)COc2ccc(F)cc2Cl)CC1 | -12.8%
13 | CCOC(=O)C1CCN(C(=O)c2ccccc2NC(=O)c2ccc(Br)cc2)CC1 | -8.28%
14 | Cc1ccc(N2CCN(C(=O)NC3CCCCC3)CC2C)cc1 (stereo not shown) | 2.82%
15 | Nc1ccc2c(c1)C(=O)N(CCCC(=O)O)C2=O | 1.78%
16 | O=C1CC2C(=O)NCCN2C(=NC(=O)c2ccccc2)N1 (stereo not shown) | 6.53%
17 | C/C(=N\NP(=S)(c1ccccc1)c1ccccc1)c1ccc(O)cc1O | 14.2%
18 | O=c1ccc(-c2nc3ccccc3n2Cc2ccc(Cl)cc2)c[nH]1 | -50.5%
19 | O=C(COC(=O)C1CCN(c2ccc(C(F)(F)F)cn2)CC1)Nc1ccc(Cl)cn1 | 6.59%
20 | CC(=O)c1cn(Cc2ccc(C#N)cc2)c2ccccc12 | 5.8%
21 | N#CC1(NC(=O)CSc2nnc(-c3ccccc3F)n2N)CCCCC1 | 13.6%
22 | NNC(=O)c1ccc(COc2ccc3ccccc3c2)cc1 | -6.21%
23 | CN1C(=O)C(=Cc2cccnc2)C(=O)N(C)C1=O | 20%
24 | CCOc1ccccc1C1C(C(N)=O)=C(C)Nc2nc(-c3ccc(OC)cc3)nn21 (stereo not shown) | 12.1%
25 | CCc1nc2n(n1)C(O)c1cc([N+](=O)[O-])ccc1S2 (stereo not shown) | 10.4%
